In the RNAGym collection of RNA variant scans (doi:10.1101/gad.245936.114):
Variants at the floor of the assay are shown more often than the library holds them.

B1: tRNA (parent)
chain: CUCUCGGUAGCCAAGUUGGUUUAAGGCGCAAGACUUUAAUUUAUCACUACGAAAUCUUGAGAUCGGGCGUUCGACUCGCCCCCGGGAGAUUUUUUCCUCGAGCAA

Variants of: B1
Assay: nonsense suppression (GFP-seq) (ratio to wild type); higher = more function; SUP4oc tRNA, yeast GFP reporter sort-seq
Procedure, shortened: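 Yeast carrying genome-integrated SUP4oc tRNA variants from a library with ~3% random mutations were grown in raffinose/galactose medium with 80 mg/L adenine. Each strain also carried a galactose-driven GFP ochre reporter and RFP. Cells were sorted into GFP/RFP bins, and each bin was Illumina-sequenced (phred ≥30). Nonsense suppression (GFPSEQ) is the bin median GFP/RFP, weighted by each variant's estimated cell share per bin, relative to wild-type SUP4oc; variants needed ≥100 reads and ≥30 cells.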

Variant | nonsense suppression
U55C C77G G78U | ≤ 0.026
U57G A89U | ≤ 0.026
U55A G78U | ≤ 0.026
U55C G65A | 0.0796
U57C G66U U76A | ≤ 0.026
C56U U57C U71C C83U G88C | ≤ 0.026
U57A U58G | ≤ 0.026
U55C | 1.09
U55G | ≤ 0.026
U55A | ≤ 0.026
U55A U70A | ≤ 0.026
C56G U58C C80U | ≤ 0.026
U55G A60U C75A | ≤ 0.026
U58A C82U | ≤ 0.026
C56U U57A G59A | ≤ 0.026
U55G G66U | ≤ 0.026
U58G A74C C82A | ≤ 0.026
C56A G66A | ≤ 0.026
U58C G65U | ≤ 0.026
U58A C68A | ≤ 0.026
U55A G66U | ≤ 0.026
C56U U57G | ≤ 0.026
U55G U63C G73C | ≤ 0.026
A54U U55C A60G | ≤ 0.026

Variant | nonsense suppression
U57C G65C A74C | ≤ 0.026
U55A G65C | ≤ 0.026
U58G C64G C83A | ≤ 0.026
U58G C64G C83G | ≤ 0.026
U57C C75U | ≤ 0.026
U57C C75G | ≤ 0.026
U55G G61A U71C | ≤ 0.026
U55G G61A U71G | ≤ 0.026
C56G U63G U76G | ≤ 0.026
U55C U58C G59A | ≤ 0.026
U55C G88C | 0.0568
U57A C81G A89U | ≤ 0.026
C56A C77G G86A | ≤ 0.026
U55A C77G A87U | ≤ 0.026
U55C A74G | 0.144
C56A U58G G84C | ≤ 0.026
U57A G78A G85A | ≤ 0.026
U57C A60C G61C U70A C77G | ≤ 0.026
U58A C80A | ≤ 0.026
C56U U58C C72G | ≤ 0.026
U57C A60C | ≤ 0.026
C56G U63G | ≤ 0.026
U55G C77G A87G | ≤ 0.026
U55G C77G A87U | ≤ 0.026

Variant | nonsense suppression
C56A G69A | ≤ 0.026
C56A C82A A89C | ≤ 0.026
U57C U63A | ≤ 0.026
U57A U71C | ≤ 0.026
U55A C83U G85U | ≤ 0.026
U57C G73A C77G | ≤ 0.026
U58A U63C | ≤ 0.026
A54U G84U | 0.0565
A54U G84C | ≤ 0.026
U57G C75G | ≤ 0.026
U57G C75A | ≤ 0.026
U57A C80G | ≤ 0.026
U58A C64U | ≤ 0.026
U57C U63G C75U | ≤ 0.026
U57G C68A G85U | ≤ 0.026
U57C C77G G84U | ≤ 0.026
C56G G88C | ≤ 0.026
U58G A89U | ≤ 0.026
C56G C83G G84C | ≤ 0.026
C56A U71C | ≤ 0.026
C56A U71A | ≤ 0.026
C56A U71G | ≤ 0.026
U58A G85U | ≤ 0.026
U57G C82G | ≤ 0.026

Variant | nonsense suppression
U58A G65C | ≤ 0.026
U55G G88C | ≤ 0.026
U57C | ≤ 0.026
U57A | 0.0873
U57G | ≤ 0.026
U58A A60C G65U U70A | ≤ 0.026
U55A A60U C77U | ≤ 0.026
U55G G84A | ≤ 0.026
C56G G67U U70A | ≤ 0.026
U57C U70C | ≤ 0.026
U57C G78U C80A | ≤ 0.026
U57G A60U | ≤ 0.026
C56G C83G | ≤ 0.026
A54U G84A G86A | ≤ 0.026
C56G G69U | ≤ 0.026
U58G | ≤ 0.026
U58A | ≤ 0.026
U58C | ≤ 0.026
U55A U71A | ≤ 0.026
U55A U71C | ≤ 0.026
U58C C68A U70C | ≤ 0.026
U57A U70A U76G | ≤ 0.026
U58G C75U | ≤ 0.026
C56G C64U A87G | ≤ 0.026

Variant | nonsense suppression
U55C G73U | 0.0422
C56A U63G G67C U76C | ≤ 0.026
U55G G61C G88C | ≤ 0.026
U55G U63C | ≤ 0.026
U55A C56A C64A U70C | ≤ 0.026
C56G U58A G78C C80U | ≤ 0.026
U55C C64G | 0.0515
U55A G59U C80U | ≤ 0.026
U57C U71C G73C | ≤ 0.026
U57C U63A C77A G84A | ≤ 0.026
U58A C77A C79U | ≤ 0.026
U58A A60C | 0.0508
U58C U63C | 0.144
U57G G61C G69C | ≤ 0.026
U55A C68A | ≤ 0.026
C56U C72A | ≤ 0.026
U57C G61A | 0.0312
C56A U71A G73U | ≤ 0.026
U57C A87G | 0.0399
U55A C56U A62U A74C C75A A89U | ≤ 0.026
U55C G59U | ≤ 0.026
U55G C72G U76G | ≤ 0.026
C56G U58G | ≤ 0.026
C56U U63A A74C C81A | ≤ 0.026

Variant | nonsense suppression
C56G G78C G85A | ≤ 0.026
U57A C80A G86C | ≤ 0.026
U55A U76G | ≤ 0.026
C56A A62G | ≤ 0.026
U57G C68U U70C | ≤ 0.026
A54U G65C | ≤ 0.026
A54U G65A | 0.0335
U55A U58G U70A A89C | ≤ 0.026
C56A C64G G88C | ≤ 0.026
C56A G73U | ≤ 0.026
U55A C72A | ≤ 0.026
U55G G78C G84C G86C | ≤ 0.026
U57A U76C | ≤ 0.026
A54U G85U | 1.01
C56U G59C A60C C80U | ≤ 0.026
U55A C80G | ≤ 0.026
U55A C80U | ≤ 0.026
U55A A60C G78A C83G G86C | ≤ 0.026
C56G G61C G73A | ≤ 0.026
U58A U70C A74G | ≤ 0.026
C56G U58C C68G | ≤ 0.026
U55G A74U | ≤ 0.026
C56U G61A | ≤ 0.026
U55A U71A G73A | ≤ 0.026

Variant | nonsense suppression
U55A A89C | ≤ 0.026
U57C G78U | ≤ 0.026
U57C G65C | ≤ 0.026
U57C G65A | ≤ 0.026
C56U G65A A87C | ≤ 0.026
U55A A62G G66C A89C | ≤ 0.026
U57G G61U C79A | ≤ 0.026
U57G U63C C64A | ≤ 0.026
U58A G78C | ≤ 0.026
U55A A60C G61U | ≤ 0.026
U58G C72A U76C | ≤ 0.026
U58G C72A U76G | ≤ 0.026
U55C C79U | 0.183
U57A A62G | ≤ 0.026
A54U U70C C81U C82G | ≤ 0.026
U55C C82A G85A | ≤ 0.026
U55G A60C C75A | ≤ 0.026
U55C U58C G59C U63C | ≤ 0.026
U57A A60U U71C U76G | ≤ 0.026
U55C G84U | 0.0453
U58G A60G G85U | ≤ 0.026
U57G G59U | ≤ 0.026
U57G G59C | ≤ 0.026
